This note sets out measurements from PubChem BioAssay AID651670 (Sanford-Burnham Center for Chemical Genomics, 2012).

The target of this assay is Fatty acid synthase (Homo sapiens) (UniProt P49327). Nature of the assay: FAS thioesterase domain inhibitors, SAR follow-up, biochemical, endpoint fluorescence intensity, analogs (AID 651670). Particulars: recombinant FAS-TE, OMFH fluorogenic substrate.

A number of entries come with more than one value. The other results are left out here.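 The calls were made as follows: active = IC50 at or below 20 µM; inactive = the rest.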 The source may hold further records. Values given together are repeats across runs, samples, wells, individuals or studies. What stands in brackets tells the records apart. Letters count within one entry.

Chain of UniProt P49327 (P49327 whole entry, looked up, the tested form may be a part): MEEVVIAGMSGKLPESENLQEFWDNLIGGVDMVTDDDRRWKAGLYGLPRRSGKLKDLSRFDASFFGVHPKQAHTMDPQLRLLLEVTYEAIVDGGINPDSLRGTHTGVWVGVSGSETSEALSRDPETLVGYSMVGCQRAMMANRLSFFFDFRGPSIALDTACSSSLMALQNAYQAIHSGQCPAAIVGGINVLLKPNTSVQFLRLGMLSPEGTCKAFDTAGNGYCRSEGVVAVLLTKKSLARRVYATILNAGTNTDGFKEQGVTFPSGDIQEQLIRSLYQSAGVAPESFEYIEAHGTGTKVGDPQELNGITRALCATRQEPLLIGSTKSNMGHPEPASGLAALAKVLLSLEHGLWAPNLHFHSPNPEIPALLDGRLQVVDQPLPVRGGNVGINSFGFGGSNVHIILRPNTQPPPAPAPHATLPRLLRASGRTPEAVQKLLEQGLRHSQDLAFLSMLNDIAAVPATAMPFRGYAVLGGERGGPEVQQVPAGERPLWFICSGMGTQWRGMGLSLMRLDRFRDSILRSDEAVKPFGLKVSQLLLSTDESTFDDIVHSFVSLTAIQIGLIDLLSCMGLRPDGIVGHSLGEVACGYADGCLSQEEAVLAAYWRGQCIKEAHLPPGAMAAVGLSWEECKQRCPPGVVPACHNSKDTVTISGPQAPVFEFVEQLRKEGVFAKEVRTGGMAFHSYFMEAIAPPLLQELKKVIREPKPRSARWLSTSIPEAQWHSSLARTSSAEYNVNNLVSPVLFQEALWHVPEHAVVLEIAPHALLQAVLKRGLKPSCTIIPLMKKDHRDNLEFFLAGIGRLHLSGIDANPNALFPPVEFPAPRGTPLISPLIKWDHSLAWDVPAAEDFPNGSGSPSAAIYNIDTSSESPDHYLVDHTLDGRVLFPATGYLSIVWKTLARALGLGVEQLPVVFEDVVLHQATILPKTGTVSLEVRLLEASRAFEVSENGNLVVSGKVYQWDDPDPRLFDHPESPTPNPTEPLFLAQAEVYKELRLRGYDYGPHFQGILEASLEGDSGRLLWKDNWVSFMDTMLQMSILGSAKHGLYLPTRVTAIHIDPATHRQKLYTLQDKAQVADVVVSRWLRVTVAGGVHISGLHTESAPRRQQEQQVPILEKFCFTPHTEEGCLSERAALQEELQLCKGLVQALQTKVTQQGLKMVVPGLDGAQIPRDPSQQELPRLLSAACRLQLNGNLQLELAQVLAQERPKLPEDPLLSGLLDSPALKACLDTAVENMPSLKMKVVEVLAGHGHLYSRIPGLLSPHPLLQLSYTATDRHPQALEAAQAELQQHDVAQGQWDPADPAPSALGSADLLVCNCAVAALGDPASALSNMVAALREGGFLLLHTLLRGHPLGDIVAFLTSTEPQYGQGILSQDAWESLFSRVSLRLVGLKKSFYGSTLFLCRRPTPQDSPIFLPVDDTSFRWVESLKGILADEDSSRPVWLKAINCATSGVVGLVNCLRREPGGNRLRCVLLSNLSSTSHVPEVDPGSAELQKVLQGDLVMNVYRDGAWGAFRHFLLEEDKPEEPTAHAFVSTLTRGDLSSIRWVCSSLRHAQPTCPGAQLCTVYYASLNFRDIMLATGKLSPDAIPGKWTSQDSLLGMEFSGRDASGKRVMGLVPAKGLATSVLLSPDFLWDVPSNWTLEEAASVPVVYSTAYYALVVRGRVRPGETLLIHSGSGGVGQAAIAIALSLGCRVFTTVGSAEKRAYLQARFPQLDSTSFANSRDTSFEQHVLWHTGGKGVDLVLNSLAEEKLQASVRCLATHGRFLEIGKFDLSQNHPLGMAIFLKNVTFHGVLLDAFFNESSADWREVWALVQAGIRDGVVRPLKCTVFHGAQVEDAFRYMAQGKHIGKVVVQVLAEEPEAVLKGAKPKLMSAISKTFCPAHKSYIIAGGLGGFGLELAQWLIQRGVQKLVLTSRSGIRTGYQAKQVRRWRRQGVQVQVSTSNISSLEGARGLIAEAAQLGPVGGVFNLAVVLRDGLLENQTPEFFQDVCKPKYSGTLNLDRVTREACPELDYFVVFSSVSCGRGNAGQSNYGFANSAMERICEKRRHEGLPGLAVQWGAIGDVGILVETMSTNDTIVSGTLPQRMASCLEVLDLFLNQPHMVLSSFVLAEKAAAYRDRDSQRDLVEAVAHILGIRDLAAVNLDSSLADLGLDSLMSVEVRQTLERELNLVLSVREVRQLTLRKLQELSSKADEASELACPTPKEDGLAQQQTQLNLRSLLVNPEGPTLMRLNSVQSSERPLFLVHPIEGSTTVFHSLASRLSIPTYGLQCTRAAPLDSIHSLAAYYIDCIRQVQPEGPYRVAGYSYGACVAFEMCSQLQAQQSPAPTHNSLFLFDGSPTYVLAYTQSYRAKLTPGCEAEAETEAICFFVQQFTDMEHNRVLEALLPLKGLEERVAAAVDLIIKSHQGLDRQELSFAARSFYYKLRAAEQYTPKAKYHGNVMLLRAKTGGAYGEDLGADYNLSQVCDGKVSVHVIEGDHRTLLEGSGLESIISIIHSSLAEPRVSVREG

For `COc1ccc(CN(C)C(=O)Cc2ccc(S(=O)(=O)N3CCCCC3)s2)cc1`, the IC50 entry was “inactive [sample A] and 17.6 µM [sample B]”.
